Reference: PMC4336329 (PLoS ONE, 2015)
Among all 310,000 compounds or so, about 14,000 (4.5%) showed an effect of 50% or more. Effects have a minus sign here. The list shows a part of the results.

These compounds were tested against human ether-à-go-go-related gene (hERG) potassium channel (human, UniProt Q12809) (assay: primary screen, population patch clamp on CHO cells stably expressing hERG).
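Also: peak tail current of the secondary pulse compared with the same well before compound.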

Sequence of human ether-à-go-go-related gene (hERG) potassium channel (Q12809 whole entry, looked up): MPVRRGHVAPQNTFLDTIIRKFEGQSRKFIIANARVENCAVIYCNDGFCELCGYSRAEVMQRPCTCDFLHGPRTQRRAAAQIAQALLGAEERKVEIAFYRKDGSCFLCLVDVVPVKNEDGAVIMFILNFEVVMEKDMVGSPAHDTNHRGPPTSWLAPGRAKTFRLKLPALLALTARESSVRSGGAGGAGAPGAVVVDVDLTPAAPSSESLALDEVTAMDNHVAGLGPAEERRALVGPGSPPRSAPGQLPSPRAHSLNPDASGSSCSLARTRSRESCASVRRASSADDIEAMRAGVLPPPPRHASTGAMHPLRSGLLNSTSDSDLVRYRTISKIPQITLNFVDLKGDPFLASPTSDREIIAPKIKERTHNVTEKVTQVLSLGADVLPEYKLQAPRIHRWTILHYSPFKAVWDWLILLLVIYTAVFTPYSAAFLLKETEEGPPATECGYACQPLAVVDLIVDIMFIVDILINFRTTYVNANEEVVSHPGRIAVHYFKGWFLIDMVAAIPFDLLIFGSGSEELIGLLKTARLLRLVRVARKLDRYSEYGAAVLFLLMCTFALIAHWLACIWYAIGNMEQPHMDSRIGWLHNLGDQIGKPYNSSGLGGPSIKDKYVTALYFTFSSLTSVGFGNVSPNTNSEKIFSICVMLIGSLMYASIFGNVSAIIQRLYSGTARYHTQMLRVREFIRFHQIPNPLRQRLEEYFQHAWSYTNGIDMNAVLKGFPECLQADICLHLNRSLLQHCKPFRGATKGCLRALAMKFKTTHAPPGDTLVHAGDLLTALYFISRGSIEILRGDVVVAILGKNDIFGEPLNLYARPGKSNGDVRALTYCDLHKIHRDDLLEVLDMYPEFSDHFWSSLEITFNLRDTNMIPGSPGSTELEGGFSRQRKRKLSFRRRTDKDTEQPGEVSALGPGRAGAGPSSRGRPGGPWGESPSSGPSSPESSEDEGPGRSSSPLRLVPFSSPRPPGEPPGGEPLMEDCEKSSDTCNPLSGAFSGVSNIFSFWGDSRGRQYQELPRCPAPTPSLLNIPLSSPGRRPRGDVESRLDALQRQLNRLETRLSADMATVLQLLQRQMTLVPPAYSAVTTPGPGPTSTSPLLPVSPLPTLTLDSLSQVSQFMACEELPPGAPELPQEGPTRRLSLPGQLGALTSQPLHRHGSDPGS

Row | Compound | hERG current change (%, negative = inhibition) at 10uM [%]
1 | O=C(O)CSC1=NC(=Nc2cccc(Cl)c2)C2(CCCCC2)N1c1ccccc1 | 35.9
2 | CCOc1ccc2nc(SCC(=O)Nc3ccc4c(c3)OCCO4)[nH]c2c1 | 6.42
3 | COC(=O)C1=C(C)N(Cc2ccccc2)C(=O)N[C@H]1c1ccc(Br)cc1 | -10.9
4 | O=C(NCC1CCCN1S(=O)(=O)c1ccccc1)C(=O)NC1CC1 (stereo not drawn) | -0.234
5 | COc1ccccc1CN1CC(C(=O)NCCN2CCOC2=O)CCC1=O (stereo not drawn) | 5.78
6 | Cc1ccc(C)c(NC(=O)C2CCN(C(=O)c3cccs3)CC2)c1 | -3.44
7 | COc1ccc(NC(=O)CSc2nnc(C)s2)cc1S(=O)(=O)N1CCOCC1 | -0.484
8 | COc1ccc(Nc2ccc(N3C(=O)CCC3=O)cc2[N+](=O)[O-])cn1 | -0.325
9 | Fc1ccc(CSc2ccc(-c3ccc4c(c3)OCO4)nn2)cc1 | 3.48
10 | CCC1=C(OC(=O)N(CC)CC)N2C(=O)OC(=NCCOC)[C@]2(Cc2ccccc2)[C@H]2C1=CC[C@H]1C(=O)N(CC)C(=O)[C@H]12 | 0.332
11 | CCCCOC(=O)c1ccc(NC(=O)C(=O)NCCN(C)C)cc1 | -28.9
12 | CCOC(=O)c1c(NC(=O)c2ccco2)n(C2CCCCC2)c2nc3ccccc3nc12 | -35.6
13 | COc1ccc(CCNC(=O)CCCNC(=O)Cn2cnc3sc(C)c(C)c3c2=O)cc1OC | 23.1
14 | CSc1ncc(Cl)c(C(=O)Nc2cc(C)ccc2C)n1 | 16.1
15 | CCOC(=O)c1c(N)c(C#N)cn1-c1ccccc1 | -15.3
16 | COc1ccc(OC)c(/C=N/c2oc(-c3ccco3)c(-c3ccco3)c2C#N)c1 | 11.8
17 | NNC(=O)c1ccc(COc2ccc3c(c2)CCC3)o1 | 0.852
18 | CCCOc1ccc(CC2CCC(=O)NC2=O)cc1 (stereo not drawn) | -5.01
19 | CC(=O)OC1COC(n2ccc3ccccc32)C(OC(C)=O)C1OC(C)=O (stereo not drawn) | 10.9
20 | O=C(O)/C=C/C(=O)Nc1ccc(SC(F)(F)C(F)(F)C(F)(F)F)cc1 | 68.5
21 | S=c1[nH]nc(Nc2cccc(Cl)c2)s1 | 29.9
22 | CCc1cccc(NC(=O)c2cccc(S(=O)(=O)N3CCN(C)CC3)c2)c1 | -53.9
23 | CN(CC1COc2ccccc2O1)C(=S)NC1CCCCC1 (stereo not drawn) | -17.7
24 | O=C(NCC(=O)N(c1cccnc1)C(C(=O)NC1CCCC1)c1cccs1)c1cccs1 (stereo not drawn) | 17.3
